Experimental findings from the antibiotic and cytotoxicity screens of Wong et al. (2023) are described below.

Assay [1] deals with HSkMC (human skeletal muscle cells). Put plainly: cytotoxicity call (relative viability < 0.9). To be noted: 10 µM.
In assay [2] the test system is HepG2. Put plainly: cytotoxicity call (relative viability < 0.9). To be noted: 10 µM.
Assay [3] has as its system S. aureus RN4220. Put plainly: growth inhibition call (relative growth <= 0.2). To be noted: 50 µM.

The other results are listed elsewhere or left out.

For the compound `Cn1c(=O)c2c(nc3n2CC=NN3)n(C)c1=O`, the cytotoxicity call in assay [1] and in assay [2] was “inactive” throughout. The growth inhibition call in assay [3] is “inactive”.

In the case of `CN1C(=O)c2cc(NS(=O)(=O)c3ccc(F)cc3)ccc2OC[C@H]2O[C@H](CC(=O)NCC(F)(F)F)CC[C@H]21`, the cytotoxicity call in assay [1] and in assay [2] was “inactive” throughout. In addition, the growth inhibition call in assay [3] is “inactive”.

In the case of `C[C@@H]1CCCCO[C@@H](CN(C)C(=O)C2CCCCC2)[C@@H](C)CN([C@@H](C)CO)C(=O)c2cc(NS(=O)(=O)c3ccc(Cl)cc3)ccc2O1`, the cytotoxicity call in assay [1] and in assay [2] was “inactive” throughout. Also, the growth inhibition call in assay [3] was “inactive”.

For `OCCN1CCOCC1`, the cytotoxicity call in assay [1] and in assay [2] was “inactive” each time. For the same compound, in assay [3], the growth inhibition call was “inactive”.

In the case of `NC(=O)c1ncn([C@@H]2O[C@H](CO)[C@@H](O)[C@H]2O)n1`, the cytotoxicity call in assay [1] and in assay [2] was “inactive” throughout. Further, the growth inhibition call in assay [3] is “inactive”.

With `O=C(C[C@H]1C[C@H]2c3cc(NC(=O)C4CCOCC4)ccc3O[C@H]2[C@@H](CO)O1)NCCN1CCCCC1`, the cytotoxicity call in assay [1] and in assay [2] was “inactive” throughout. Besides, in assay [3], the growth inhibition call is “inactive”.

Take `CC1=C(C(=O)O)N2C(=O)[C@H](NC(=O)[C@@H](N)c3ccccc3)[C@H]2SC1`: the cytotoxicity call in assay [1] and in assay [2] was “inactive” in each case. Besides, in assay [3], the growth inhibition call is “inactive”.

Take `C[C@@H]1CN([C@@H](C)CO)C(=O)c2cc(NS(=O)(=O)c3ccc(Cl)cc3)ccc2O[C@H]1CN(C)Cc1ccc(Cl)c(Cl)c1`: the cytotoxicity call in assay [1] and in assay [2] was “active” each time. Also, the growth inhibition call in assay [3] was “inactive”.

Take `C[C@@H]1CCCCO[C@H](CN(C)S(=O)(=O)c2ccccc2)[C@H](C)CN([C@H](C)CO)C(=O)c2cc(NC(=O)Nc3ccccc3)ccc2O1`: the cytotoxicity call in assay [1] and in assay [2] was “inactive” throughout. For the same compound, in assay [3], the growth inhibition call is “inactive”.

Turning to `C[N+](C)(C)CCCCNC(=O)[C@H]1C[C@H]2C(=O)N3CCC[C@H]3C(=O)N2[C@H]1c1cccc(OCCO)c1`, the cytotoxicity call in assay [1] was “inactive”. In addition, the cytotoxicity call in assay [2] is “active”. The growth inhibition call in assay [3] is “inactive”.

On to `C[C@H](CO)N1C[C@H](C)[C@H](CN(C)S(C)(=O)=O)OCc2cn(nn2)CCCC1=O`, for which the cytotoxicity call in assay [1] and in assay [2] was “inactive” in each case. In addition, the growth inhibition call in assay [3] was “inactive”.

As for `COc1ccccc1C#Cc1cnc2c(c1)C(=O)N([C@@H](C)CO)C[C@@H](C)[C@H](CN(C)C(=O)CN(C)C)O2`, the cytotoxicity call in assay [1] and in assay [2] was “inactive” throughout. In addition, the growth inhibition call in assay [3] was “inactive”.

Regarding `CCCNC(=O)N[C@@H]1C=C[C@H](CC(=O)N2CCN(C)CC2)O[C@@H]1CO`, the cytotoxicity call in assay [1] and in assay [2] was “inactive” in each case. Also, the growth inhibition call in assay [3] is “inactive”.

On to `COc1ccc(CN(C)C[C@H]2OCCCC[C@@H](C)Oc3ccc(NS(=O)(=O)c4c(C)noc4C)cc3C(=O)N([C@@H](C)CO)C[C@@H]2C)cc1`, for which the cytotoxicity call in assay [1] and in assay [2] was “inactive” in each case. Also, the growth inhibition call in assay [3] is “inactive”.

As to `C[C@H]1CN([C@@H](C)CO)C(=O)CCCn2cc(nn2)CO[C@H]1CN(C)S(=O)(=O)c1ccc2c(c1)OCCCO2`, the cytotoxicity call in assay [1] and in assay [2] was “inactive” throughout. The growth inhibition call in assay [3] was “inactive”.

Take `C[C@H](CO)N1C[C@H](C)[C@H](CN(C)C(=O)Nc2ccc3c(c2)OCO3)OCCCC[C@H](C)Oc2ccc(NC(=O)Nc3ccc(F)cc3)cc2C1=O`: the cytotoxicity call in assay [1] and in assay [2] was “inactive” in each case. Besides, in assay [3], the growth inhibition call was “inactive”.

As to `Cc1cc2nc(C(=O)N[C@H]3CCN(C)C3)cc(-c3ccccc3Cl)c2c(C)c1-c1ccc(CO)cc1`, the cytotoxicity call in assay [1] and in assay [2] was “inactive” throughout. Moreover, in assay [3], the growth inhibition call was “active”.

For `COc1ccc(NC(=O)N(C)C[C@@H]2Oc3ccc(NC(=O)Cn4cnnn4)cc3CC(=O)N([C@@H](C)CO)C[C@H]2C)cc1`, the cytotoxicity call in assay [1] and in assay [2] was “inactive” in each case. Moreover, the growth inhibition call in assay [3] is “inactive”.

Regarding `C[C@@H]1CN([C@@H](C)CO)C(=O)c2cc(C#CC3(O)CCCC3)cnc2O[C@@H]1CN(C)C(=O)Cc1ccncc1`, the cytotoxicity call in assay [1] and in assay [2] was “inactive” throughout. Besides, the growth inhibition call in assay [3] is “inactive”.

On to `COc1ccc(NC(=O)N(C)C[C@@H]2OCCCC[C@@H](C)Oc3ccc(NC(=O)Nc4ccccc4)cc3C(=O)N([C@@H](C)CO)C[C@@H]2C)cc1`, for which the cytotoxicity call in assay [1] and in assay [2] was “inactive” in each case. In addition, the growth inhibition call in assay [3] is “inactive”.

For the compound `C[C@@H]1CN([C@H](C)CO)C(=O)c2cccc(NC(=O)C3CCOCC3)c2O[C@@H]1CN(C)C(=O)NC1CCCCC1`, the cytotoxicity call in assay [1] and in assay [2] was “inactive” throughout. In assay [3], the growth inhibition call was “inactive”.

Consider `CC(=O)N[C@H](Cc1ccc2ccccc2c1)C(=O)N[C@H](Cc1ccc(Cl)cc1)C(=O)N[C@H](Cc1cccnc1)C(=O)N[C@@H](CO)C(=O)N[C@@H](Cc1ccc(NC(=O)[C@@H]2CC(=O)NC(=O)N2)cc1)C(=O)N[C@H](Cc1ccc(NC(N)=O)cc1)C(=O)N[C@@H](CC(C)C)C(=O)N[C@@H](CCCCNC(C)C)C(=O)N1CCC[C@H]1C(=O)N[C@H](C)C(N)=O`, for which the cytotoxicity call in assay [1] and in assay [2] was “inactive” each time. In addition, in assay [3], the growth inhibition call was “inactive”.

Turning to `C[C@@H]1CCCCO[C@H](CN(C)CC2CCCCC2)[C@H](C)CN([C@H](C)CO)C(=O)c2cc(NC(=O)Nc3ccc(C(F)(F)F)cc3)ccc2O1`, the cytotoxicity call in assay [1] and in assay [2] was “active” throughout. The growth inhibition call in assay [3] was “inactive”.

Consider `Cc1noc(C)c1NC(=O)N[C@H]1C=C[C@H](CC(=O)NCCCN(C)C)O[C@H]1CO`, for which the cytotoxicity call in assay [1] and in assay [2] was “inactive” each time. In assay [3], the growth inhibition call is “inactive”.

Consider `CCCCCCCCCCCCCCCCCC(=O)O`, for which the cytotoxicity call in assay [1] and in assay [2] was “inactive” each time. Also, in assay [3], the growth inhibition call was “inactive”.

As to `NNC(=O)C1=NO[C@H]2COC3(CCN(c4ncccn4)CC3)OC[C@@H]12`, the cytotoxicity call in assay [1] and in assay [2] was “inactive” throughout. Moreover, the growth inhibition call in assay [3] was “inactive”.

Regarding `CCCN(C)C[C@@H]1OCCCC[C@H](C)Oc2ccc(NC(=O)Cc3ccccc3)cc2C(=O)N([C@H](C)CO)C[C@@H]1C`, the cytotoxicity call in assay [1] and in assay [2] was “inactive” throughout. Moreover, in assay [3], the growth inhibition call is “inactive”.

As for `C[C@@H]1CN([C@H](C)CO)C(=O)Cc2cc(NC(=O)C3CC3)ccc2O[C@@H]1CN(C)S(=O)(=O)c1cccs1`, the cytotoxicity call in assay [1] and in assay [2] was “inactive” throughout. Also, the growth inhibition call in assay [3] is “inactive”.

For the compound `C[C@H](CO)N1C[C@H](C)[C@H](CN(C)S(=O)(=O)c2cn(C)cn2)Oc2ccc(NC(=O)CCN3CCOCC3)cc2CC1=O`, the cytotoxicity call in assay [1] and in assay [2] was “inactive” each time. Also, in assay [3], the growth inhibition call was “inactive”.
